Measured values published in PubChem BioAssay AID686978 (National Center for Advancing Translational Sciences (NCATS), 2013).
The whole screen tested about 420,000 compounds, of which about 64,000 (15%) were called active. This list was built around the results that the source calls inconclusive (neither active nor inactive); the mix of calls is not that of the screen. Calls come from the whole dose curve; as a rule, active = well fitted inhibition curve with a large enough effect; inconclusive = small, poorly fitted or top-dose-only effect; inactive = flat fitted curve, though single readings scatter. Potencies of inconclusive entries are left out as doubtful fits.

Assay: qHTS for Inhibitors of human tyrosyl-DNA phosphodiesterase 1 (TDP1): qHTS in cells in absence of CPT; note: nearly all actives have a fitted effect of over 55% in size
Conditions: DT40 Tdp1-/- hTDP1 cells, no CPT, ATP luminescence, 48 h; activity change, negative = growth inhibition: at 46.2 µM (top of the series) unless noted
Summary of the method: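 Growth kinetics read by CellTiter-Glo luminescence after ≥48 hr at 37 °C. Cells: DT40 Tdp1-/- stably carrying human TDP1, 400 per well, compound exposure in the absence of CPT (DMSO vehicle).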
% is set by controls: 0 for no effect and ±100 for the full control effect; potency is the fitted concentration of half-maximal effect; tags give direction and shape of the fitted curve.

Structure (SMILES)	Potency	activity change, negative = growth inhibition
CC(=O)Nc1cc(C(=O)N2CCc3ccccc3C2)ccc1Sc1ccc(Cl)cc1	inconclusive [inhibitor, single point]	–
CC(C)C(C)NC(=O)COn1nnc2ccc(S(=O)(=O)N3CCOCC3)cc21 (configuration not stated)	inactive	–
Cc1ccc(-n2ncc(C(=O)NCCN3CCCC3)c2C2CCN(C(=O)OC(C)(C)C)CC2)cc1C	inconclusive [inhibitor, single point]	–
Cc1cc(C(=O)NCCCN2CCN(c3cc(Cl)ccc3C)CC2)n(-c2ccccc2)n1	inconclusive [inhibitor, single point]	–
Nc1ccc(C(=O)N/N=C\C=C\c2ccc([N+](=O)[O-])cc2)cc1	inactive	–
CCOC(=O)C1(Cc2ccccc2C(F)(F)F)CCN(C(=O)c2cc(C)n(C)n2)CC1	inconclusive [inhibitor, single point]	–
CC(c1ccco1)N(C(=O)C12CC3CC(CC(C3)C1)C2)c1ccccn1 (configuration not stated)	inconclusive [inhibitor, single point]	–
COc1ccc(-c2csc(NC(=S)NC(=O)/C=C/c3ccc(C(C)C)cc3)n2)cc1OC	inconclusive [inhibitor, single point]	–
O=C(c1cc(COc2cccc(C(F)(F)F)c2)on1)N1CCSCC1	–	inconclusive: -32% [inhibitor]
CC(=O)Nc1cccc(NC(=O)c2c(-c3ccccc3Cl)noc2C)c1	inconclusive [inhibitor, single point]	–
COc1ccccc1N(CC(=O)Nc1ccccc1C(F)(F)F)S(=O)(=O)c1cccs1	inconclusive [inhibitor, single point]	–
CC(C)N(Cc1ccccc1)S(=O)(=O)c1ccc(-c2cc(C(F)(F)F)on2)s1	inconclusive [inhibitor, single point]	–
CN(CC(=O)NCc1ccco1)C(=O)C1CC(=O)N(c2ccc3c(c2)OCCO3)C1 (configuration not stated)	–	inconclusive: -31.1% [inhibitor]
Cc1ccc2cc(C)c(SCC#N)nc2c1	inactive	–
Cc1c(NC(=O)c2cccc(NC(=O)C(C)Oc3ccccc3)c2)c(=O)n(-c2ccccc2)n1C (configuration not stated)	inconclusive [inhibitor, single point]	–
COc1cccc(CNC(=O)c2ccc(S(=O)(=O)N3CCCCC3)cc2)c1	inconclusive [inhibitor, single point]	–
Fc1ccccc1N1CCN(c2nc(-c3cccs3)nc3ccccc23)CC1	inconclusive [inhibitor, single point]	–
CCN(C(=O)COC(=O)c1c(C)nn(-c2ccccc2)c1Cl)c1c(N)n(Cc2ccccc2)c(=O)[nH]c1=O	inactive	–
COc1ccc(CNCc2cc(OC)ccc2OC)cc1	inconclusive [inhibitor, single point]	–
O=C(CNCC1CCCCC1)Nc1ccc(OC(F)(F)F)cc1	inactive	–
Cc1ccc(NC(=O)CCCN2C(=S)NC(C)(C)CC2C)cc1 (configuration not stated)	inactive	–
COc1ccc(C(=O)Cc2ccc(OC)c(OC)c2)c(OC)c1	inconclusive [inhibitor, single point]	–
COc1ccccc1-c1cc2c(c3c1ccn3C)C1CCC2O1 (configuration not stated)	inconclusive [inhibitor, single point]	–

Structure (SMILES)	Potency	activity change, negative = growth inhibition
Cc1scc(C(=O)N/N=C/c2ccc(Cl)s2)c1C	active: 16.4 µM	–
CCOC(=O)Cc1csc(NC(NC(=O)OCC)(C(=O)OCC)C(F)(F)F)n1 (configuration not stated)	inactive	–
COc1ccc(C(=O)CSc2nnc(NC(=O)C3CC(=O)N(c4ccccc4C)C3)s2)cc1 (configuration not stated)	inconclusive [inhibitor, single point]	–
NC(=O)N/N=C/c1cn(CC(=O)Nc2ccc(F)cc2)c2ccccc12	inconclusive [inhibitor, single point]	–
CNc1nc(-c2ccc3c(c2)CCN3C(=O)c2ccc(F)cc2)cs1	inconclusive [inhibitor, single point]	–
COCc1c(C(C)C)nc(C(C)C)c(/C=C/[C@@H](O)C[C@@H](O)CC(=O)O)c1-c1ccc(F)cc1	active: 0.596 µM	–
CCCC(c1nnnn1CS(=O)(=O)c1ccc(C)cc1)N1CCC(C(N)=O)CC1 (configuration not stated)	inactive	–
COc1ccc(N2CCN(C(=O)c3ccc4[nH]c(C)c(C)c4c3)CC2)cc1	inconclusive [inhibitor, single point]	–
Cc1ccc([C@H]2C[C@@H](n3cc(-c4ccc(F)cc4)nn3)[C@H](O)CN2C(=O)C2CCCCC2)cc1	inconclusive [inhibitor, partial curve]	–
CC(=O)Cc1nsc(NC(=O)c2ccccc2)n1	inconclusive [inhibitor, partial curve]	–
C/C(=N\Nc1ccc(S(=O)(=O)N2CCCCC2)cn1)c1cccc(Br)c1	active: 3.26 µM	–
COC(=O)[C@H]1C[C@@]2(O)CN(S(=O)(=O)c3ccc(C)cc3)C[C@@]2(OC(=O)Nc2cccs2)C[C@H]1C(=O)OC	inconclusive [inhibitor, single point]	–
O=C(Nc1nnc(N2CCCCCC2)s1)Nc1cc(F)ccc1F	inconclusive [inhibitor, single point]	–
CC1CCN(CC(=O)Nc2sc3c(c2C#N)CCC3)CC1	inactive	–
CCCOc1ccc(C(=O)Nc2ccc3oc(-c4ccncc4)nc3c2)cc1	inconclusive [inhibitor, full curve, poor fit]	–
CC(C)c1ccc(CN(C(=O)c2cccs2)C2CCS(=O)(=O)C2)cc1 (configuration not stated)	inconclusive [inhibitor, partial curve, poor fit]	–
CC(OC(=O)C1=COCCO1)C(=O)NC1(C#N)CCCCC1 (configuration not stated)	inactive	–
CCOC(=O)c1c(C)[nH]c(C(=O)CN2C(=O)NC(C)(c3ccc(C)cc3)C2=O)c1C (configuration not stated)	active: 23.1 µM	–
COc1cc(NC(=O)COc2cc3oc(=O)cc(C)c3cc2Cl)cc(OC)c1OC	active: 5.8 µM	–
Cc1ccc(Oc2nc3c(c(=O)n(C)c(=O)n3C)n2C)cc1C	inconclusive [inhibitor, single point]	–
CC(C)C[C@@H](CSc1ccc(Br)cc1)N1CCN(C)CCC1=O	inconclusive [inhibitor, single point]	–
COc1cc(NC(=O)CSc2nnc(C)n3c2cc2oc(C)cc23)cc(OC)c1	inconclusive [inhibitor, full curve]	–
COc1ccc(NC(c2nnc(-c3ccccc3)o2)c2ccccc2F)cc1Cl (configuration not stated)	inactive	–

Structure (SMILES)	Potency	activity change, negative = growth inhibition
O=Cc1c[nH]c2ccc(C(=O)c3ccccc3)cc12	inconclusive [inhibitor, single point]	–
Cc1ccc(OCCN2C(=O)NC3(CCc4ccccc4C3)C2=O)cc1 (configuration not stated)	inactive	–
Cc1ccccc1-c1noc(-c2ccc(N3CCCCC3)c([N+](=O)[O-])c2)n1	active: 11.6 µM	–
O=C(Cn1c(-c2ccccc2)c[n+]2ccsc12)c1ccc([N+](=O)[O-])cc1	active: 23.1 µM	–
CN(Cc1ccc(Cl)cc1Cl)C(=O)CNC(=O)c1ccc2c(c1)OCO2	inactive	–
Cc1cc2c(=O)n(C)c(SCC(=O)Nc3cccc(F)c3)nc2s1	inconclusive [inhibitor, single point]	–
CCOC(=O)CC1c2nc3ccccc3cc2CN1C(=O)OCC (configuration not stated)	inconclusive [inhibitor, single point]	–
Cc1c2cnn(CC(=O)NCc3ccc(F)cc3)c(=O)c2c(C)n1Cc1cccc(Cl)c1	active: 4.11 µM	–
CCOc1cc(/C=N/NC(N)=O)cc(Br)c1OCc1ccccc1	inconclusive [inhibitor, single point]	–
CCOCCCN(Cc1ccco1)S(=O)(=O)c1cc2c(cc1Cl)NC(=O)CO2	inconclusive [inhibitor, partial curve, poor fit]	–
Cc1ccc(C)c(S(=O)(=O)Nc2ccc(-n3cnnn3)cc2)c1	inconclusive [inhibitor, single point]	–
Cc1ccc(N(C(=O)c2csnn2)C(C(=O)NC2CCCC2)c2cccnc2)c(C)c1 (configuration not stated)	–	inconclusive: -38.3% [inhibitor]
COc1ccc(OCCN2CCN(S(=O)(=O)c3ccccc3C#N)CC2)cc1	inconclusive [inhibitor, partial curve]	–
CC(C)=CC(=O)N1CCCC(N2CCN(c3ccccc3C)CC2)C1 (configuration not stated)	inconclusive [inhibitor, single point]	–
CCOC(=O)N1CCN(Cc2nc3c(c(=O)n(C)c(=O)n3C)n2Cc2cccc3ccccc23)CC1	inconclusive [inhibitor, partial curve]	–
COCCN(Cc1cccs1)S(=O)(=O)c1cc(-c2cc(C)no2)ccc1C	active: 20.6 µM	–
CCc1cccc2sc(N3CCN(C(=O)c4ccc([N+](=O)[O-])o4)CC3)nc12	inconclusive [inhibitor, single point]	–
O=Cc1cc([N+](=O)[O-])ccc1N1CCN(Cc2ccc3c(c2)OCO3)CC1	inconclusive [inhibitor, single point]	–
O=C(c1ccc(Cl)c(S(=O)(=O)N2CCCCC2)c1)N1CCN(c2ccccc2)CC1	inconclusive [inhibitor, single point]	–
COc1ccc(Cl)c2sc(N3CCN(C(=O)C4=COCCO4)CC3)nc12	inconclusive [inhibitor, single point]	–
CC(NS(=O)(=O)c1cccc(S(=O)(=O)c2ccccc2)c1)C(=O)O (configuration not stated)	inactive	–
